# Assay results as given in publication PMC4336329 (PLoS ONE, 2015).
# Among all 310,000 compounds or so, about 14,000 (4.5%) showed an effect of 50% or more. The effect is printed as a negative number. This is one part of the list.
# Target: human ether-à-go-go-related gene (hERG) potassium channel (human, UniProt Q12809)
# Assay: primary screen, population patch clamp on CHO cells stably expressing hERG
# 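Note: peak tail current of the secondary pulse compared with the same well before compound.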
# Chain of human ether-à-go-go-related gene (hERG) potassium channel (Q12809 whole entry, looked up): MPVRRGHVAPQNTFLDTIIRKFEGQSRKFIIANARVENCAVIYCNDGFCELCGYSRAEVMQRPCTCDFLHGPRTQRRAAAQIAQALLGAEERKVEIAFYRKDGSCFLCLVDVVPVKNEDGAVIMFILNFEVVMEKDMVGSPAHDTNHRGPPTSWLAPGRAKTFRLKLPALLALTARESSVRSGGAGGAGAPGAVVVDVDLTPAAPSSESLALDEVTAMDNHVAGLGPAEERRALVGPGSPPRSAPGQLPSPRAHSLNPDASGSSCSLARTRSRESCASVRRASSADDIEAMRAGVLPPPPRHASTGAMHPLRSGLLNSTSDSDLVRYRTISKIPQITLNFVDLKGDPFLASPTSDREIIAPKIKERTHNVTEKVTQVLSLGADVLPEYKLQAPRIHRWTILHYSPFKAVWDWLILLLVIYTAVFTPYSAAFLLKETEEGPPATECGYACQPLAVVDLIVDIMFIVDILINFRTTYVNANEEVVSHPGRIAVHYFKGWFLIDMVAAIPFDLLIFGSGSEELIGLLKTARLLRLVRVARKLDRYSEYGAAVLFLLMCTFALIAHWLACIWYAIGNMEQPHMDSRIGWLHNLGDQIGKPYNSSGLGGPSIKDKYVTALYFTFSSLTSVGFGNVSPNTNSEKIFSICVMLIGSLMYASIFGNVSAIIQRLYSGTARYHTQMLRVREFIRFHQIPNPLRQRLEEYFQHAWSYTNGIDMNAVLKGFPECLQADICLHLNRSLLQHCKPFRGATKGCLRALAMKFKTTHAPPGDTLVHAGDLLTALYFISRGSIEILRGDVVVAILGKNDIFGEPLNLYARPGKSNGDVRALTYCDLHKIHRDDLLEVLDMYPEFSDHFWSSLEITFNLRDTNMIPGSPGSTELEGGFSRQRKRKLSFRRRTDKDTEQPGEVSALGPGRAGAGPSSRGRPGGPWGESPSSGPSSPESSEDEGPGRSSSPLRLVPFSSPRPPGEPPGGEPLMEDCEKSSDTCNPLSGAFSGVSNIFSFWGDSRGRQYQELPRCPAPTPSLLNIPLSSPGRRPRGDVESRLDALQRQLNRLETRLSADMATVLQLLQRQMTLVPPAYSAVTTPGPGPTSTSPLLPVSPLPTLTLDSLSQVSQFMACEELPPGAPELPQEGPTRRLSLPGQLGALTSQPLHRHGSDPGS
row,SMILES,"hERG current change (%, negative = inhibition) at 10uM [%]"
1,Cc1cc(Cl)c(S(=O)(=O)N2CCN(c3ccccc3)CC2)cc1OCC(N)=O,2.35
2,NS(=O)(=O)c1ccc(NC(=S)NCc2cccc(Cl)c2)cc1,6.04
3,COC(=O)c1ccc(NC(=S)NNC(=O)c2ccccc2)cc1,29.3
4,Cn1c(=O)c2c(SCCN3CCOCC3)nc(C3CCCC3)nc2n(C)c1=O,-2.12
5,CCN(CC)C(=O)c1ccc(NC(=O)CCCSc2ccccc2)cc1,-8.65
6,CCC(C)NC(=O)c1nn(C)c(=O)c2ccccc12 (centres unmarked),12
7,COc1cccc(/C=N/NC(=O)c2cc3cc([N+](=O)[O-])ccc3s2)c1O,2.07
8,CCCCOc1ccc(C)cc1CN(CCO)CCO.Cl,1.6
9,C[C@H](NC(=O)[C@H]1N2C(=O)c3ccccc3C2SC1(C)C)C(=O)N1CCC[C@H]1CO (some centres unmarked),7.57
10,O=c1[nH]c2ccccc2n2c(C(F)(F)F)nnc12,14
11,O=C(COC(=O)c1cccc(S(=O)(=O)N2CCN(c3ccc(F)cc3)CC2)c1)NCC1CCCO1 (centres unmarked),19.9
12,Cc1ccc(CNC(=O)c2cccnc2Cl)cc1,9.97
13,Cc1nnc(NC(=O)CCCN2C(=O)c3ccccc3C2=O)s1,6.88
14,Cc1ccccc1-c1nc(CS(=O)CC(=O)NC2CC2)c(C)o1 (centres unmarked),11.8
15,CC(=O)c1cccc(NC(=O)c2ccc3c(c2)CCCC3)c1,-7.8
16,CN1CCN(c2ccccc2NC(=S)NC(=O)c2cc3ccccc3o2)CC1,-16.5
17,CCc1nnc(NS(=O)(=O)c2ccc(NC(=S)NC(=O)c3cccs3)cc2)s1,3.53
18,Cn1cnnc1SCCCN1C(=O)c2cccc3cccc(c23)C1=O,-30.6
19,CCOc1ccc(-c2cc(N3C(=O)Nc4ccccc4N3O)on2)cc1,26.7
20,COc1ccc(C(=O)N2CCCC2)cc1S(=O)(=O)N1CCOCC1,-1.7
21,CCc1ccc(N(C(=O)c2csnn2)C(C(=O)NC(C)(C)C)c2ccccn2)cc1 (centres unmarked),-42.7
22,CNC(=O)c1ccccc1Nc1ccc(SC(F)F)cc1,-1.62
23,CC(=O)c1cccc(NS(=O)(=O)N2CCCCC2)c1,12.5

row,SMILES,"hERG current change (%, negative = inhibition) at 10uM [%]"
1,Cc1[nH]c2ccccc2c1C(c1ccncc1)N1CCN(c2ccccc2F)CC1 (centres unmarked),-7.48
2,COc1ccc(-c2cc(C(=O)NCCCn3ccnc3)no2)cc1,-18.1
3,Cc1ccc(NC(=S)N(CCCN2CCN(C)CC2)Cc2cccs2)cc1,-51.3
4,Cc1ccc(S(=O)(=O)N(C)c2c(C)ccc(S(N)(=O)=O)c2C)cc1,-10.9
5,COC(=O)c1sc(-c2ccc(Cl)cc2)cc1NC(=O)c1ccccc1C(=O)O,7.49
6,O=C(N/N=C/c1ccc(Cl)c([N+](=O)[O-])c1)C1CC1,-1.88
7,COc1ccc(C(=O)c2c[nH]c3ccccc23)cc1,-2.93
8,COc1ccccc1N1CCN(C(=O)CN(c2ccccc2OC)S(=O)(=O)c2ccccc2)CC1,-13.4
9,Cc1ncc(CN2CCCC(C(=O)Nc3ccc(-c4cccc(F)c4)cc3)C2)cn1 (centres unmarked),-73.2
10,NC(=O)c1ccsc1NC(=O)COC(=O)Cc1cccc2ccccc12,-23
11,CCOC(=O)CS(=O)(=O)c1ccc2ccccc2c1,-4.08
12,CC1CC1C(=O)OCC(=O)N(C)c1c(N)n(Cc2ccccc2)c(=O)[nH]c1=O (centres unmarked),-33.2
13,COc1cc(/C=N/n2c(-c3ccccc3)n[nH]c2=S)cc(OC)c1OC,7.69
14,Cc1nc2sc(C(=O)OC(C)C)c(N)c2c(C)c1C,13.1
15,Cc1cc(C(C)(C)C)cc(C)c1C[n+]1ccc2ccccc2c1.[Cl-],-37.3
16,COc1ccccc1CC(NC(C)=O)C(=O)N1CCN(C(=O)c2cccs2)CC1 (centres unmarked),1.39
17,Clc1cccc(N/N=C/c2ccc(N3CCOCC3)cc2)c1,11.9
18,CC12CCC(=O)N1C(C(=O)NCCN1C(=O)S/C(=C\c3ccccc3F)C1=O)CS2 (centres unmarked),-30.5
19,CCOC(=O)N1CCN(C(=O)CN2C(=O)c3ccccc3S2(=O)=O)CC1,12
20,COC(CNC(=O)CN1C(=O)COc2ccc(S(=O)(=O)N3CCOCC3)cc21)OC,18.9
21,CCc1nnc(NS(=O)(=O)c2ccc(NC(=O)c3cccc(OC)c3)cc2)s1,23.2
22,O=C1CC(NCC2CCCO2)C(=O)N1c1ccc(Cl)cc1 (centres unmarked),11.2
23,CC1Cn2c(nnc2-c2cc3ccccc3cc2O)S1 (centres unmarked),16

row,SMILES,"hERG current change (%, negative = inhibition) at 10uM [%]"
1,Cc1cccc(C)c1NC(=O)Cn1nnc(-c2ccc(N3CCOCC3)cc2)n1,-42.5
2,CC1OC2C(OC1C)N(S(C)(=O)=O)CCN2S(C)(=O)=O (centres unmarked),14.9
3,Cc1ccc(N=C2NC(=O)/C(=C/c3cn(C)c4ccccc34)S2)cc1C,6.57
4,COc1ccc(CNS(=O)(=O)c2ccc3c(c2)N(C(C)=O)CC(C)S3)cc1 (centres unmarked),-12.7
5,COC(=O)c1ccc(-c2nc(CN3CCC(C(=O)N4CCOCC4)CC3)c(C)o2)cc1,-7.65
6,O=C(c1ccco1)N1CCn2c1nc1ccccc12,-12.1
7,CCC(=NCc1cc(OC)cc(OC)c1)c1c(O)n(C)c(=O)n(C)c1=O,-9.04
8,O=[N+]([O-])c1ccc(Cl)cc1N1CCOCC1,20.4
9,O=C(CCn1nc(-c2ccccc2)c2ccccc2c1=O)N1CCN(c2ccccc2)CC1,-45.1
10,CCCCC(=O)Nc1nnc(SCC(=O)NC2CC2)s1,-8.79
11,Cc1ccc(OCc2n[nH]c(=S)n2Cc2ccccc2)cc1,16.1
12,Br.CC(=O)Nc1nc(C)c(-c2csc(Nc3cccc(C(C)=O)c3)n2)s1,2.59
13,Cc1[nH]n2c(=O)c3c(nc2c1-c1ccc(F)cc1)CCCC3,4.02
14,COc1ccc(NS(=O)(=O)c2c(C)n(C)c(=O)n(C)c2=O)cc1,15.5
15,COC(=O)c1ccc(NS(=O)(=O)NC(=O)c2cn(C)c3ccccc23)cc1,5.08
16,CCOC(=O)c1sc(C)c(C(=O)NCCCN2CCOCC2)c1N,13.9
17,O=C(CSc1nc2ccccc2o1)NCc1ccco1,-0.541
18,Cc1cc(C)c(C)c(OCc2nc(-c3cccnc3)no2)c1,-8.4
19,Cc1ccc(CN(CC(=O)NC2CCCC2)C(=O)CSc2nnc(COc3ccccc3)o2)cc1,12.2
20,S=c1[nH]nc(COc2ccc(Cl)cc2Cl)n1-c1ccccc1,19.1
21,C/C=C/n1ccnc1CC(O)(c1ccccc1)c1ccc(C)cc1 (centres unmarked),-22.5
22,O=C(c1cc2c(s1)CCCC2)N1CCN(S(=O)(=O)c2ccccc2)CC1,-9.82
23,CN(c1ccc(C(=O)NCc2ccc3c(c2)OCO3)cc1)S(=O)(=O)c1ccccc1,-4.02

row,SMILES,"hERG current change (%, negative = inhibition) at 10uM [%]"
1,CCCCN(CCCC)S(=O)(=O)c1c(C)[nH]c(=O)[nH]c1=O,13.9
2,O=C(N/C(=C/c1ccccc1)C(=O)N1CCCCC1)c1ccco1,20.9
3,COc1ccc2c(ccc[n+]2CC(=O)c2ccc(C)cc2)c1.[Br-],-1.8
4,Oc1c(C(c2ccc(Cl)cc2)N2CCCC2)cc(Cl)c2cccnc12 (centres unmarked),15.9
5,CCN(C(=O)CSc1n[nH]c(-c2ccccc2)n1)c1c(N)n(Cc2ccccc2)c(=O)[nH]c1=O,8.55
6,COc1ccc(NC(=O)CN2CCOCC2)cc1S(=O)(=O)N1CCCCC1,5.55
7,COc1ccc(/C=C2\Sc3ccc(C(=O)NCCCN4CCCC4)cc3N(C)C2=O)cc1OC,-31.8
8,COc1ccc2nc(NC(=O)CSc3n[nH]c(N)n3)sc2c1,-3.93
9,CC(C)(C)NC(=O)c1cccc(NC(=O)c2ccc(NC(=O)c3ccco3)cc2)c1,-26.4
10,Cc1cc(C(=O)NC2CC(C)(C)Cc3c2cnn3-c2ccccc2)n(C)n1 (centres unmarked),-45.3
11,CCN(CC)CCn1c(=N)n(CC(O)COc2ccccc2)c2ccccc21.Cl (centres unmarked),-52.1
12,Cc1ccc(-c2nc(NCc3ccco3)n(C(=O)c3ccco3)n2)cc1,3.98
13,CC(OC(=O)c1ccco1)C(=O)NCc1cccs1 (centres unmarked),3.86
14,COCCNC(=O)c1ccc(C2SCC(=O)N2CCc2ccccc2)cc1 (centres unmarked),16.1
15,COc1cccc(-c2nnn(CC(=O)O)n2)c1,9.1
16,COc1ccc(CCC(=O)NCC(c2ccco2)N2CCc3ccccc32)cc1 (centres unmarked),-44.2
17,COc1cc(-c2nc(S(=O)(=O)c3ccccc3)c(N3CCOCC3)o2)cc(OC)c1OC,-3.94
18,CC(OC(=O)c1cnccn1)C(=O)c1ccccc1 (centres unmarked),8.33
19,CC(C)Sc1cc(N2CCOCC2)nc(-c2ccc(Cl)cc2)n1,15.2
20,OCCN1CCN(c2nc(N3CCCCC3)nc(N3CCCCC3)n2)CC1,-4.04
